Results: PubChem BioAssay AID2528 (National Center for Advancing Translational Sciences (NCATS), 2010)
Out of some 350,000 compounds screened, about 700 (0.2%) were called active. Inconclusive results, whose numbers are uncertain, are shown with a selection of clear calls. The call rests on the fitted dose curve; in most records, active means well fitted inhibition curve with a large enough effect; inconclusive means small, poorly fitted or top-dose-only effect; inactive means flat fitted curve, though single readings scatter. Potencies of inconclusive entries are left out as doubtful fits.

What follows are compounds tested against RecQ-like DNA helicase BLM (Homo sapiens) (UniProt P54132) (assay: qHTS Assay for Inhibitors of Bloom's syndrome helicase (BLM)). Settings: recombinant BLM DNA unwinding, fluorescence dequenching; series mostly up to 56.1 µM.
Sequence of UniProt P54132 (P54132 whole entry, looked up): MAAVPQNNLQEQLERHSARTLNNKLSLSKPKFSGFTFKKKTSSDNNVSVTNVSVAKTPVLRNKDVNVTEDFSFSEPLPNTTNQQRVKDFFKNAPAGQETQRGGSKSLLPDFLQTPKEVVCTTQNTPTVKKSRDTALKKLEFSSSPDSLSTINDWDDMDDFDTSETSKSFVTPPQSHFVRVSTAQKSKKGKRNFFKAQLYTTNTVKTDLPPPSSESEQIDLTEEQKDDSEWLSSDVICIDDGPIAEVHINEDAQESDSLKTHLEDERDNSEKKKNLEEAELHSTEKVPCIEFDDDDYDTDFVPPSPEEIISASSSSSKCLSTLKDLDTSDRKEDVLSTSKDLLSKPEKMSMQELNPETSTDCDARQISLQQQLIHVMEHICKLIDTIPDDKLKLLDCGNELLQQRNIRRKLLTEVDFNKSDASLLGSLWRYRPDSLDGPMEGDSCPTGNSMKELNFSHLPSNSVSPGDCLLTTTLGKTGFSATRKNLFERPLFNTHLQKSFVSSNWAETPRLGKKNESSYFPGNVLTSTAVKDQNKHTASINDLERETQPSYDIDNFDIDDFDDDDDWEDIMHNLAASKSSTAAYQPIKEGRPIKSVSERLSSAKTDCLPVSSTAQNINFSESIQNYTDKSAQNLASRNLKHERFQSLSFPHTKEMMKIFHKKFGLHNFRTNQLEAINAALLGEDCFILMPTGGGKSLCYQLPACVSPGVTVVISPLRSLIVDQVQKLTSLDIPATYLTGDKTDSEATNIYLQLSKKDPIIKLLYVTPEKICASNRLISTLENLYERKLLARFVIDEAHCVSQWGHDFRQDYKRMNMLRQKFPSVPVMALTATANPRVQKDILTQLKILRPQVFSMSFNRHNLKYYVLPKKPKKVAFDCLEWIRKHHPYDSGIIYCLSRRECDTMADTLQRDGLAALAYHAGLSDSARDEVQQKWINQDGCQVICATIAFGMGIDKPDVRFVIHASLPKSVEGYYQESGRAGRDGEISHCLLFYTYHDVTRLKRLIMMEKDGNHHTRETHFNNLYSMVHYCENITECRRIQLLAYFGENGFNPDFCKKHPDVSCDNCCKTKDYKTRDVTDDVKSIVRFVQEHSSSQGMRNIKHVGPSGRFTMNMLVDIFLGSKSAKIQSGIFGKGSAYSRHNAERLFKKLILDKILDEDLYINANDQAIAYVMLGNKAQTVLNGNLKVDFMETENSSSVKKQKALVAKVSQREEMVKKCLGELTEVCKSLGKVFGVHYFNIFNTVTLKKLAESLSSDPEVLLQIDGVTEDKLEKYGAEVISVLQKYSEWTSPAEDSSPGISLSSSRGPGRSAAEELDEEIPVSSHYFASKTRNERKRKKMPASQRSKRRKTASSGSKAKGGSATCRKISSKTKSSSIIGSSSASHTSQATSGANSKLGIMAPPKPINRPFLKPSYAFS
Further: nearly all actives have a fitted effect of over 35% in size.
Potency means the concentration at half of the fitted maximal effect; tags describe the fitted curve by direction and shape.

Compound | Potency
COc1ccc(C(=O)Nc2nc3c(s2)Cc2cc(OC)ccc2-3)cc1 | inconclusive [inhibitor, full curve]
O=C(O)CCCc1nc(-c2ccc(Cl)cc2)no1 | inactive
CS(=O)(=O)N1CCC2(CC1)CN(c1ccccn1)C2 | inactive
Cc1nn(Cc2ccccc2)c(Cl)c1/C=C/C(=O)OCC(=O)N1CCCC1=O | inconclusive [inhibitor, single point]
CN(C)c1ccc(/C=C(/C(=O)c2ccc(Cl)cc2Cl)n2cncn2)cc1 | inactive
CCCc1cc(=O)oc2cc(OCC(=O)Nc3ccc(S(N)(=O)=O)cc3)ccc12 | inconclusive [inhibitor, partial curve]
CCC(=Nc1ccc(N)cc1)C1=C(O)C(C(=O)OC)C(C)(C)CC1=O (stereo not given) | inconclusive [inhibitor, partial curve]
O=C(N/N=C/c1cccc([N+](=O)[O-])c1)c1cc(-c2ccc3c(c2)OCO3)n[nH]1 | inconclusive [inhibitor, full curve, poor fit]
O=C(N/N=C/c1ccncc1)c1cccc(S(=O)(=O)Nc2ccc(Cl)cc2)c1 | inconclusive [inhibitor, single point]
COc1cc(OC)c(NC(=O)Nc2cccc(OCc3cc(=O)n4ccccc4n3)c2)cc1Cl | inconclusive [inhibitor, single point]
Cc1cc2nc3c(=O)n(C4CCCCC4)c(=O)[nH]c3nc2cc1N | inconclusive [inhibitor, single point]
COc1ccc(OC)c(Nc2nc(NCc3ccco3)c3ccccc3n2)c1 | active: 28.2 µM
O=C(/C=C/c1ccco1)c1ccc(NC(=O)C23CC4CC(CC(C4)C2)C3)cc1 | inconclusive [inhibitor, single point]
C=CCn1c(SCC(C)=O)nc2scc(-c3ccco3)c2c1=O | inconclusive [inhibitor, partial curve]
CCCc1nc2ccccc2c(=O)n1-c1ccc(C(=O)OCC)cc1 | active: 7.94 µM
Cc1ccccc1C(=O)Nc1ccc2c(C#N)c3nc4ccccc4nc3n2c1 | inconclusive [inhibitor, partial curve]
O=C(c1cc2nc(C3CC3)cc(C(F)F)n2n1)N1CCOCC1 | inconclusive [inhibitor, single point]
O=C(Nc1ccccc1)/C(=C\c1cccs1)NC(=O)c1ccccc1 | inactive
COc1cc(/C=C2\SC(=O)NC2=O)ccc1Oc1ccc([N+](=O)[O-])cn1 | inconclusive [inhibitor, single point]
O=C1Nc2ccc3sc4ccccc4c3c2C1=O | inconclusive [inhibitor, single point]
O=C(NCc1ccccn1)c1ccc2nc(-c3ccco3)c(-c3ccco3)nc2c1 | active: 8.91 µM
CCCSc1nnc(NC(=O)CSc2sc3c(O)cc(=O)[nH]c3c2C#N)s1 | active: 22.4 µM
O=C(/C=C/c1ccc(/C=C/C(=O)Nc2ccc(C3=NCCN3)cc2)cc1)Nc1ccc(C2=NCCN2)cc1 | inconclusive [inhibitor, single point]

Compound | Potency
CCOc1ccc(CC(=O)Nc2c(C(=O)c3ccc(C)cc3)oc3ccccc23)cc1OCC | inactive
OCCNc1nc(Nc2ccc(O)cc2)nc2ccccc12 | inconclusive [inhibitor, partial curve]
CC(C)n1c(=S)[nH]c2scc(-c3cccs3)c2c1=O | inactive
Cc1cc(C)c(S(=O)(=O)/N=C2/C=C(Sc3ncn[nH]3)C(=O)c3ccccc32)cc1C | active: 10 µM
O=[N+]([O-])c1cc(/C=N\Nc2nccs2)ccc1O | active: 28.2 µM
CC(C)c1onc(-c2c(Cl)cccc2Cl)c1COc1ccc(/C=C/c2cccc(C(=O)O)c2)c(Cl)c1 | active: 31.6 µM
CNc1ccccc(-c2ccc3cc4c(cc3n2)OCO4)c1=O | inconclusive [inhibitor, partial curve]
Cc1cc(C(=O)COc2cccnc2[N+](=O)[O-])c(C)n1Cc1ccco1 | inconclusive [inhibitor, partial curve]
O=C(NCCN1CCOCC1)C1(C(F)(F)F)C/C(=C\CCO)CCCO1 (stereo not given) | inactive
O=C(O)c1cc(NC(=O)c2ccc(Br)cc2)cc(NC(=O)c2ccc(Br)cc2)c1 | inactive
O=c1c(C(c2ccccc2)c2c(O)sc3ccccc3c2=O)c(O)sc2ccccc12 | inconclusive [inhibitor, single point]
CCCCCCCCCCCCCCCCC(C(=O)O)C(O)(CC(=O)O)C(=O)O (stereo not given) | inconclusive [inhibitor, single point]
O=C(CCCOc1ccc(Cl)cc1Cl)Nc1ccccn1 | inactive
CCOC(=O)c1sc2nc(-c3ccco3)c3c(c2c1N)CC(C)(C)OC3 | inconclusive [inhibitor, single point]
O=C1/C(=C\c2ccco2)CCC/C1=C\c1ccco1 | inconclusive [inhibitor, single point]
O=C(CCl)Nc1nc(-c2ccco2)c(-c2ccco2)s1 | inconclusive [inhibitor, single point]
CCCCn1c(NS(=O)(=O)c2ccc(C)cc2)c(S(=O)(=O)c2ccccc2)c2nc3ccccc3nc21 | active: 7.08 µM
Nc1c(N2CCCC2)cc(Cl)c2nonc12 | inconclusive [inhibitor, single point]
Cc1c(Cl)cccc1NS(=O)(=O)c1ccc2c(c1)C1C=CCC1C(c1ccc(C(=O)O)cc1)N2 (stereo not given) | inconclusive [inhibitor, single point]
COc1ccccc1NC(=O)c1c(C)cc(C)nc1SCC(=O)c1ccc(Cl)cc1 | inactive
CCCCCCc1cc2cc(-c3nnc(-c4ccc(C)cc4)o3)c(=O)oc2cc1O | inconclusive [inhibitor, single point]
O=C(NCc1ccccc1)C1CCN(C(=O)c2cnn(-c3ccccc3)c2-n2cccc2)CC1 | inactive
